Data from PubChem BioAssay AID540267 (National Center for Advancing Translational Sciences (NCATS), 2011).
Hit rate of the full screen: of about 340,000 compounds, about 530 (0.16%) were called active. This list was built around the results that the source calls inconclusive (neither active nor inactive); the mix of calls is not that of the screen. No stated cut-off is given here; in the data, active means activity change below about -80%; inconclusive means between about -30% and that limit; inactive means weaker than that.

Test: Small Molecules that selectively kill Giardia lamblia: qHTS;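 further: parasites exposed to compound for two days anaerobically before the ATP read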
Settings: Giardia lamblia trophozoite viability; at 7.66 µM; stronger effect = lower value
Method in brief: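 Trophozoite viability was measured as ATP-dependent luminescence, read 15-30 min after reagent addition. Before that, parasites at 100 cells/well were exposed to compounds for 48 h, anaerobically, at 37 deg C.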
On the % scale 0 is the no-effect control and ±100 the full control effect.

| Compound | activity change |
| --- | --- |
| COC(=O)C(C)(C)c1cccnc1C#N | inconclusive: -30.9% [inhibitor] |
| Cc1cc([N+](=O)[O-])nn1CC(=O)NCc1ccc(Cl)cc1 | inconclusive: -32% [inhibitor] |
| O=C(NCC(c1ccco1)N1CCCC1)c1ccc(S(=O)(=O)Nc2ccccc2Cl)cc1 (configuration not stated) | inconclusive: -50.7% [inhibitor] |
| COc1ccc(-n2c(Cc3cccn3C)nnc2SCC(=O)NC2CCCC2)cc1 | inconclusive: -30.1% [inhibitor] |
| COc1ccc(NC(=S)NC(=O)C2CCC2)cc1 | inconclusive: -42.3% [inhibitor] |
| C#CC(CC)(CC)NC(=O)Nc1ccccc1C(=O)OC | inconclusive: -34% [inhibitor] |
| O=C(/C=C/c1ccccc1[N+](=O)[O-])NCC1CCCO1 (configuration not stated) | inconclusive: -36.2% [inhibitor] |
| O=C1CN(Cc2ccccc2)S(=O)(=O)c2ccccc21 | inconclusive: -41.8% [inhibitor] |
| O=C(CSc1ccsc1[N+](=O)[O-])N1CCCCC1 | inconclusive: -39.2% [inhibitor] |
| Cc1ccc(S(=O)(=O)N2[C@@H](c3ccccc3)C(C(=O)O)=CC[C@H]2c2cccc(C)c2)cc1 | inconclusive: -44.2% [inhibitor] |
| O=C(Nc1ccc(N2CCCCC2)cc1)c1cc([N+](=O)[O-])cc([N+](=O)[O-])c1 | inconclusive: -38.5% [inhibitor] |
| Cc1ccc(S(=O)(=O)N2CCC(C(=O)NCC3CC3)CC2)cc1 | inactive: 9.72% |
| Cc1onc(-c2c(F)cccc2Cl)c1C(=O)Nc1cc(S(=O)(=O)N2CCCCC2)ccc1O | inconclusive: -34.5% [inhibitor] |
| COc1cccc(-c2nc(CS(=O)CC(=O)NC3CCCC3)c(C)o2)c1 (configuration not stated) | inconclusive: -41% [inhibitor] |
| CCc1ccccc1NCC(=O)Nc1ccc(Cl)c(C(F)(F)F)c1 | inactive: -0.369% |
| COc1ccc(-c2cn3ccccc3n2)cc1OC | inconclusive: -31.1% [inhibitor] |
| CCN(CC)S(=O)(=O)c1cc(C(=O)Nc2cc(C)on2)ccc1Cl | inactive: -28% |
| O=C(CCC(=O)NNC(=O)c1ccc(Cl)cc1Cl)NCc1ccccc1 | inconclusive: -32.7% [inhibitor] |
| CCC(Oc1ccccc1)C(=O)Nc1ncc([N+](=O)[O-])s1 (configuration not stated) | active: -87.6% |
| O=c1c2ccccc2oc2cc(C#CC3(O)CCCCC3)ccc12 | inconclusive: -37.2% [inhibitor] |
| CCOC(=O)c1c(NC(=O)CC2Nc3ccccc3NC2=O)sc(C)c1C (configuration not stated) | inactive: 5.47% |
| CCCCCC(=O)NC(Cc1ccc(OC)c([N+](=O)[O-])c1)C(=O)O (configuration not stated) | inconclusive: -44.5% [inhibitor] |
| CC(C)[C@H](NC(=O)c1ccccc1)C(=O)NCCc1ccccc1 | inconclusive: -31.4% [inhibitor] |
| COC(=O)[C@H](CC(C)C)NC(=O)Cn1cnc(C(=O)Nc2ccc(C)c(C)c2)n1 | inconclusive: -33.6% [inhibitor] |
| COc1cccc(C2CC(c3cccs3)=NN2C(=O)CSc2nc3ccccc3o2)c1OC (configuration not stated) | inactive: -6.26% |
| COc1ccccc1/C=C1\SC(N2CCC(C)CC2)=NC1=O | inactive: 2.11% |

| Compound | activity change |
| --- | --- |
| O=C(O)C1CCCCC1C(=O)Nc1ccc(S(=O)(=O)N2CCOCC2)cc1 (configuration not stated) | inactive: 6.66% |
| O=C(Nc1nccs1)c1ccc[nH]c1=O | inconclusive: -32.8% [inhibitor] |
| CCC(=O)c1ccc(OCC(=O)OCC(=O)NC2CCCCCC2)cc1 | inconclusive: -36.1% [inhibitor] |
| Cc1[nH]n(-c2nc(-c3ccccc3F)cc(=O)[nH]2)c(=O)c1CCO | inconclusive: -38.1% [inhibitor] |
| COc1ccccc1OCCNC(=O)C1CC(=O)N(Cc2ccccc2)C1 (configuration not stated) | inconclusive: -32.6% [inhibitor] |
| Oc1ccc(Cl)cc1C1C=C(c2ccc3c(c2)OCO3)NC(c2ccc(F)c(Br)c2)N1 (configuration not stated) | inactive: -24.8% |
| CSCCC(NC(=O)c1ccccc1)C(=O)NCC(C)(C)N1CCOCC1 (configuration not stated) | inconclusive: -43.8% [inhibitor] |
| COc1ccc(/C=N/NC(=O)c2cccc([N+](=O)[O-])c2)c2ccccc12 | inconclusive: -40.2% [inhibitor] |
| Cc1cc(N2CCN(c3ccc([N+](=O)[O-])c4cccnc34)CC2)c2ccccc2n1 | inconclusive: -46.7% [inhibitor] |
| O=C(COc1ccccc1Cl)NC1CC1 | inconclusive: -36.4% [inhibitor] |
| Cc1cccc(C2N(c3ccc(F)cc3)C(=O)C3CCCN32)c1 (configuration not stated) | inconclusive: -32.1% [inhibitor] |
| COc1ccc(C(=O)N2CCN(Cc3ccc4c(c3)OCO4)CC2)cc1[N+](=O)[O-] | inconclusive: -31.7% [inhibitor] |
| Cc1nc2nc(SCC(N)=O)[nH]c2cc1Br | inactive: 39.2% |
| COc1ccc(Cl)cc1NC(=O)COc1ccc2c(c1)OCO2 | inconclusive: -34.8% [inhibitor] |
| COc1cc2c(=O)n(CCC(=O)NCC3CCCO3)c(=O)n(CC(=O)Nc3ccc(C)cc3)c2cc1OC (configuration not stated) | inconclusive: -37% [inhibitor] |
| O=C(CSc1ccsc1[N+](=O)[O-])N1CCN(c2ccccn2)CC1 | inconclusive: -76.9% [inhibitor] |
| C=C(C)CCOC(=O)C(CC(=O)O)NCc1ccco1 (configuration not stated) | inconclusive: -32.9% [inhibitor] |
| COc1ccc2cc(C(=O)C3CCCN(Cc4ccccn4)C3)ccc2c1 (configuration not stated) | inactive: 12.6% |
| Cc1[nH]c2ccc(C(=O)NCCCN3CCOCC3)cc2c1C | inconclusive: -34% [inhibitor] |
| Cc1ccc(S(=O)(=O)N2[C@@H](c3ccc(Br)cc3)C(C(=O)O)=CC[C@H]2c2cccc(Cl)c2)cc1 | inconclusive: -39.4% [inhibitor] |
| Cc1csc(NC(=O)c2ccc(C)c([N+](=O)[O-])c2)n1 | inactive: 18.7% |
| CC(C)(C)N1[C@@H](CC(=O)O)c2cc(C(F)(F)F)ccc2S1(=O)=O | inconclusive: -34.4% [inhibitor] |
| CC(NC(=O)C12CC3CC(CC(O)(C3)C1)C2)c1ccc(Cl)cc1Cl (configuration not stated) | inconclusive: -34.3% [inhibitor] |
| COc1ccc(CCNC(=O)CN(C)S(=O)(=O)c2cccs2)cc1OC | inconclusive: -35.4% [inhibitor] |
| CCC(c1nnnn1C(C)(C)C)N1CCN(c2cc(Cl)ccc2C)CC1 (configuration not stated) | inactive: -21.3% |
| CC(C)[C@H](NC(=O)c1ccccc1Cl)C(=O)OCC(=O)NCc1ccc2c(c1)OCO2 | inconclusive: -30.4% [inhibitor] |

| Compound | activity change |
| --- | --- |
| Cc1ccc(NC(=O)Cn2cc(S(=O)(=O)c3ccc(F)cc3)c(=O)c3cc(F)ccc32)cc1 | inconclusive: -39.1% [inhibitor] |
| CC(NC(=O)c1cc(Br)cs1)C1CCCO1 (configuration not stated) | inconclusive: -33.5% [inhibitor] |
| COc1ccccc1N=CC=C1OC(C)(C)C(C)(C)O1 | inactive: 3.23% |
| CCc1ccc(OCC(O)CN2CCN(c3ccccn3)CC2)cc1 (configuration not stated) | inconclusive: -35% [inhibitor] |
| O=C(Nc1ccc(Br)cn1)c1cccc2ccccc12 | inactive: -1.25% |
| Cc1ccc(NC(=O)CSc2nnc(COc3ccccc3F)n2N)cc1S(=O)(=O)N1CCOCC1 | inactive: -20.9% |
| N#Cc1c(N)n[nH]c1Cc1cccc2ccccc12 | inconclusive: -32.3% [inhibitor] |
| COc1cc(NC(=O)c2ccc([N+](=O)[O-])o2)ccc1NC(=O)c1cccs1 | active: -102% |
| CC(C)COc1ccc(C(=O)CCN2CCCCC2)cc1 | inactive: 3.11% |
| COc1ccc2nc(COC(=O)c3cccc([N+](=O)[O-])c3)c(C(C)=O)[n+]([O-])c2c1 | inconclusive: -46.8% [inhibitor] |
| CCc1ccc(CNc2ccc(N3CCN(C(C)=O)CC3)cc2)cc1 | inactive: 47.8% |
| COC(=O)c1ccc2c(c1O)C(=O)c1ccccc1C2=O | inconclusive: -33.5% [inhibitor] |
| O=C(CN(c1ccccc1)S(=O)(=O)c1ccccc1[N+](=O)[O-])Nc1ccccc1C(=O)N1CCOCC1 | inactive: -6.41% |
| CC1(C)C(C(=O)OCC(Cl)(Cl)Cl)N2C(=O)C(NC(=O)Cc3ccccc3)C2S1=O (configuration not stated) | inactive: -13.2% |
| Nc1nc(N)nc(-c2cc([N+](=O)[O-])ccc2O)n1 | inconclusive: -31.3% [inhibitor] |
| Cc1ccc(-n2nc3ccc(N)cc3n2)cc1C | inconclusive: -41.5% [inhibitor] |
| C=CCNC(=O)c1ccc2c3n(nc2c1)-c1ccc(C)cc1CO3 | inconclusive: -31.1% [inhibitor] |
| C[C@H]1C=C(C(=O)N2CCOCC2)O[C@@H](OCc2ccc(CO)cc2)C1 | inconclusive: -31.8% [inhibitor] |
| CS(=O)(=O)c1ccc(C(=O)N(CCc2ccccc2)Cc2ccccc2)cc1 | inconclusive: -41.7% [inhibitor] |
| O=C(CCNC(=O)c1ccccc1)OCC(=O)c1cccc(Cl)c1 | inactive: 8.46% |
| COC(=O)CN1C(=O)C(C)(C)Oc2ccc(C(=O)NC3CCCC3)cc21 | inactive: -3.34% |
| O=C(N/N=C/c1cccc2cccnc12)c1ccccc1O | inactive: -7.63% |
| N#Cc1c(-c2ccccc2)nc(-c2ccccc2)[nH]c1=O | inconclusive: -31.5% [inhibitor] |
| C#CCOCCOCCOCCNc1nc(N2CCN(C(=O)CCCCCCCCCCNC(=O)[C@H](CCCCN)n3cc(CCO)nn3)CC2)nc(N2CCN(C(=O)CCCCCCCCCCNC(=O)[C@H](CCCCN)n3cc(CCO)nn3)CC2)n1 | inactive: -20.3% |
| O=C(O)C1=C[C@H](c2ccc(F)cc2)C[C@H](OCCCCO)O1 | inconclusive: -30.4% [inhibitor] |
